Over roughly 33,000 sequences, “E-score (-0.5 to 0.5)” has its median near -0.054; the highest 2% begin near 0.39. Some of the results follow.
molecular target: Ylr278c (UniProt Q05854); assay: PBM E-score (8-mer binding enrichment) (E-score (-0.5 to 0.5)); higher = stronger / more preferred TF binding; most listed sequences are background and not binding sites; conditions: protein concentration: 200 nM; construct: GST-DNA-binding domain
Description: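 Universal 'all 10-mer' protein binding microarrays (Agilent AMADID 015681) probed with GST-tagged S. cerevisiae TFs (full-length or DBD) made by in vitro transcription/translation (PURExpress), about 100-200 nM. Bound TF was detected with fluorescent anti-GST. Each ungapped 8-mer (which stands for itself and its reverse complement) is scored by the PBM enrichment score (E-score), a modified Wilcoxon-Mann-Whitney statistic from -0.5 to +0.5, computed with the Universal PBM Analysis Suite. Scale: above 0.35 generally sequence-specific binding.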

Sequence | PBM E-score
GGATCTTA | 0.135
CTAGAAGC | -0.113
CCAGTAGA | -0.279
AGCATTCG | -0.0217
ACTCCTAG | -0.114
ATGACACC | -0.183
TCGGAACA | 0.417
GGGGCTGA | -0.132
GAGCGTCC | -0.0249
AATGGACG | 0.103
AGAGTCGC | -0.14
AATGTTGG | -0.0382
GAAACCGC | 0.199
ATTTAACG | 0.164
AAGGGCCT | -0.252
CGTAGCCC | 0.0595
ATCGATTA | -0.0212
GCACTACA | -0.234
ACGTATCT | -0.108
CCAATGCC | 0.158
CACTGGGA | -0.268
TAGTTCCA | -0.215
AATATCTG | -0.0672
AATGGTGC | 0.0412
AGGGGGGA | -0.26

Sequence | PBM E-score
ATTCTTCA | 0.0434
CGGTACAC | 0.0775
GACTGATA | -0.144
AGCTCCGC | 0.436
ACTAACGC | 0.0051
AACAAGAC | -0.0898
CTGATGTC | 0.0488
ACTGAACC | 0.162
AACGGCGA | 0.244
GGGCATCA | -0.137
AACTTGAG | -0.153
ATGTGCTA | 0.0403
GTCCCACA | 0.0487
AGTAACTC | 0.041
CATCCACA | -0.174
CGACCATC | -0.032
GTAGTACA | -0.233
ATCACGAT | -0.164
ACGCTAAG | -0.345
GGACAGGA | -0.0534
ATCGAAGG | -0.0782
GTGTGAAA | -0.0146
GGCAGATA | 0.13
CCCACCGA | 0.00192
CTATCTGA | -0.328

Sequence | PBM E-score
GCCGTCGC | 0.0738
TAATCTGA | -0.185
ACGCTTTA | -0.298
CGATTTCC | 0.336
CAGGTCAC | -0.261
ACGCAGAG | -0.118
GGTTAAGA | -0.204
CAGGCGAC | -0.0604
AGTGTGGG | 0.0815
AGCAAAGG | -0.0467
GGCGATTA | 0.164
AATGCTAA | -0.0396
GAAACTCC | 0.399
CTTTTATC | 0.00807
ATTTCGAA | 0.0794
CTTGTCCC | 0.164
GGTGAAAC | 0.0866
TCAGATCA | -0.247
GTACGAGA | -0.0211
ACATGACC | -0.182
AGTAAGAC | -0.128
GTTGCGTA | 0.0604
CGAAATAC | 0.135
AAGCTATA | -0.0999
AGCAAATA | -0.0583

Sequence | PBM E-score
GGCTCTAA | -0.0326
CAAGGGTC | 0.0181
CGTAACGC | 0.0321
AGGTCAAG | -0.0669
CCCGCTTA | 0.0741
GCAGCTCC | 0.107
CAGCCATG | -0.304
GGTTAGAA | -0.15
TACTAGAA | -0.0203
ATCTCGTA | -0.292
AACGGAGT | 0.448
ACGTAAGC | -0.162
CGAGGTGC | 0.173
GCTAGCTA | -0.221
ATGGAGAC | -0.103
ATTATATC | -0.147
GAGCCCAA | -0.116
CATGCACC | -0.0878
CTCGAGTC | -0.103
GGTATGAA | -0.144
GGGTTGCA | -0.136
AAGATTGC | 0.049
CTGCGTGA | -0.0239
CGGTATTC | 0.317
AAAGTTAT | -0.0557

Sequence | PBM E-score
CCAGATAG | -0.286
CTCGCGTC | 0.0578
CAATATAC | -0.0223
AGTTGACA | -0.0988
CCGGCGTC | 0.355
ACCGCATA | 0.13
ACACCGAT | 0.165
CCTACATC | 0.144
GCTCATCA | -0.101
ACAGACAC | -0.141
CGTGCTTA | 0.00648
ACTATTCT | -0.101
GCCATCCC | 0.0681
CCAAGGAC | -0.0974
CAAGCTGC | -0.103
CAATAACA | -0.107
AGTGCTAC | -0.361
AGAATTGC | -0.0267
TGAGCAAA | -0.0941
AGAACGCA | -0.0793
TCGATCAA | -0.0973
TCTGTCAA | -0.225
ATGTCCGC | 0.403
CTGTCTGA | -0.224
TTAGATAA | -0.214

Sequence | PBM E-score
CGTGCATA | -0.0925
GACATCGC | 0.0737
ATAAGGTG | -0.0571
ATGGTCCA | -0.199
TCGGACAA | 0.434
GAATTATC | -0.137
CACAAAAC | 0.0121
CCCCATCC | -0.0388
CTCGTATC | -0.115
CAACAGTC | -0.0332
CGGTTTCC | 0.304
AATCACGA | -0.0732
CCCTAGGA | -0.137
AGGTACAT | -0.235
CCGAAGAA | 0.292
ACGAACCC | 0.0908
TATACTCA | -0.185
ATAATTTC | 0.097
GCTCCTCA | -0.0972
AGTCAGTA | 0.00611
GCCAAACC | 0.119
ATCCTATC | 0.0564
GTGAGACA | 0.0187
ATAGGAAA | 0.0106
AGTCCTTC | -0.128

Sequence | PBM E-score
CGATGCCG | 0.285
CCCATCCA | -0.119
CAAAGCAA | -0.0505
CGAGCGGC | 0.279
GCCGGCCA | 0.359
ACTCAACC | -0.0547
AGTCAGTC | -0.236
GAGCTAAC | 0.15
AATTCCGG | 0.48
ACCCCAAT | -0.204
CTAGGACC | -0.0226
AGTAGAGA | -0.193
CCCGCGTA | 0.196
TACCGGAA | 0.397
CTCGGTAC | 0.0123
CCCGACAA | 0.281
GCGCTCAC | -0.0623
ACAATGGG | 0.113
CGTCTGTA | -0.0421
AGTATAAA | 0.16
GAGCGGGC | 0.188
AGGATGAA | -0.186
ATGGGCAC | -0.12
AAAGCTCA | -0.244
AGACAATC | 0.0499

Sequence | PBM E-score
GAAACCCA | 0.13
CTTAACAA | 0.0368
AGTCCCGG | 0.362
TGAGACCA | -0.285
ATCTGTTG | -0.184
AGCTGCGG | 0.212
GCGCTATA | -0.0554
CACGTTAA | -0.238
ACAGATCG | -0.0232
CTGCACGC | -0.159
AAGCCTAG | -0.0513
ACAAGAAA | 0.083
ACCAGGAC | -0.0907
AGGCGAGA | -0.193
AGAATGAG | -0.136
CGTAGGAC | -0.0304
GACACAAA | 0.217
CCTTTCTA | -0.0629
CGGAATCC | 0.376
CTCGTGCA | -0.165
AATCCATA | -0.0527
CGCGATAC | 0.0887
AGAATCAC | 0.077
CCACGTCG | -0.036
GCTTACTA | -0.119

Sequence | PBM E-score
ACAACGGG | 0.118
CGACTAGA | -0.116
CCAGGCTA | -0.304
ACTCACCG | 0.0323
CATTTGAC | -0.0149
CCGACGGA | 0.425
GTAGGACA | 0.0198
CTTGAGCA | -0.251
ACGGCAAT | 0.214
CAGGCTCG | -0.0285
TCACGTGA | 0.0614
GTCCCAAA | -0.175
CTAACTAC | 0.00829
GCGACTCA | -0.145
GGAACAAA | 0.135
GAAAATTA | 0.19
AAGGAACG | -0.0723
ATCATACG | -0.0792
AGCCGCCG | 0.313
ATACTGAA | -0.249
AACACCTG | -0.151
ATACGAGC | -0.0146
CATACTGG | -0.0228
GTTCTGTA | -0.19
ACTTCAGG | -0.0351

Sequence | PBM E-score
AGAACATA | 0.17
CAACGCCA | -0.167
TTCCCAAA | -0.114
CATGCTGA | -0.106
ATCCGGCC | 0.399
CTTGACAC | -0.193
GCCCTATA | -0.126
TAAAAAGA | -0.0968
ACGTGCGC | -0.0167
ACGACGAC | -0.169
GAACATCA | -0.0903
GCTCGTCC | 0.0498
ATGTGTAA | -0.0901
CAGTGCGC | -0.0568
AGGCTATG | -0.145
CGTGATTA | -0.0095
GAGTTAAC | -0.104
CCAGGCGC | -0.0509
CTTAACGC | -0.17
ACCCCAGG | -0.191
CTGGAACC | -0.175
AACCAGCT | -0.268
AGTCAGAT | -0.137
CGTTGACC | -0.182
GAAGCATC | -0.17

Sequence | PBM E-score
CCAATGGA | -0.0471
CAGCTGGC | 0.158
GCTTATAA | -0.0843
ACCGCAGA | -0.158
TCTCGAGA | -0.061
AGGTCTAT | -0.141
AGATCAAT | -0.117
CTATATGC | -0.0286
CGACGCTA | 0.0184
AGCCGAGG | 0.116
AATTTGAA | 0.144
GATCTAGC | -0.154
CCGATAAG | 0.228
ACATGTTA | -0.0688
CTAGTATC | -0.00044
AACATACT | -0.0198
CATAAGCA | -0.14
TAACACCA | -0.217
AGCCTTAG | -0.289
AGGTGTGC | -0.183
ACATTATG | -0.0505
GATTGAAA | 0.0649
CCCGTGCA | 0.0714
CCTCAGAG | -0.176
ACGACAGT | -0.201

Sequence | PBM E-score
AATACTCA | -0.0606
TACGCGCA | 0.175
AGTCTGGC | -0.217
CGAACATC | 0.137
GTCCCAGA | -0.235
CTCACGAC | -0.273
CCCAAAAG | -0.00836
AAGGCTGG | -0.364
AGTGGAGA | -0.11
ATAGTGGC | -0.179
ATAGGGGG | -0.138
TAACCGGA | 0.431
CACTACAC | -0.121
CGTTTGGA | -0.0681
CTTTGGCC | -0.00842
CGGGCATA | 0.119
AAGCTGCG | -0.00014
AATGAGAC | -0.206
TCAACCAA | -0.17
ACCTTGAT | -0.0349
TGATGTAA | -0.0886
GTGGTTCA | -0.141
GAGTAAAC | 0.0397
ATTACGTA | 0.00229
GTTAGAAC | -0.0392

Sequence | PBM E-score
AGCTCGGG | 0.141
AATCAGTA | -0.157
GCGATGTA | 0.00603
AGTACCAG | -0.119
AGTCTGTG | -0.268
GGACGTGA | -0.103
ACCTCTGC | -0.209
AATGCTTC | 0.0555
CAAACCTA | -0.144
AGCATTCC | 0.0817
CTTTTTTA | -0.128
CAACATAG | -0.203
ACCTACTA | -0.0586
TTACCGAA | 0.172
TGATATCA | -0.294
ATTATGCG | 0.199
ATAGGATC | -0.118
ACTGTGAG | -0.144
CTATCACA | -0.125
GCTTACCA | -0.178
CCAGGGGG | -0.324
CCGGGGTA | 0.408
AATGTGGG | 0.0131
ACTGGCCC | -0.0769
GCGAACAA | 0.0778

Sequence | PBM E-score
GCGTCTCA | -0.184
ACCGCCCA | 0.154
AAGAGACA | -0.0194
AACAGGGC | -0.152
CTCAAATC | -0.153
AACCAAAG | -0.261
CCACGGCC | 0.079
GATCCAGC | 0.0556
ATTCTGGC | -0.138
AAAGAAAC | 0.08
AAAAATCC | 0.272
ATGAGCAC | -0.187
ACGTGAAG | -0.271
CCACGTAC | -0.165
CAGCGAGA | -0.124
AGCTATAA | -0.206
CGGGGAAG | 0.33
CCAAGACC | 0.026
ATCGTTCA | -0.0863

Reference: the supplement of paper PMC3334620
